According to PubChem BioAssay AID743279 (National Center for Advancing Translational Sciences (NCATS), 2014):
Hit rate of the full screen: of about 360,000 compounds, about 17,000 (4.7%) were called active. Inconclusive results, whose numbers are uncertain, are shown with a selection of clear calls. Cut-off read from the data, not from the text of the source: active = activity change below about -50%; inconclusive = mostly about -30% to -49%; inactive = weaker than that.

Assay: qHTS for Inhibitors of Inflammasome Signaling: IL-1-beta AlphaLISA Primary Screen
Conditions: THP-1 LPS/ATP IL-1B secretion, 16 h; at 57.5 µM, active compounds read low
In short: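 Secreted IL-1B measured by AlphaLISA bead assay after 16 h compound exposure of THP-1 cells; compounds (final up to 57.5 uM) added 1 h before LPS (250 ng/mL) and ATP (1.25 mM) stimulation; lower signal means less secretion.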
% is set by controls: 0 for no effect and ±100 for the full control effect.

Activity change, inconclusive:
O=C(Nc1ccccc1[N+](=O)[O-])c1cc(S(=O)(=O)N2CCOCC2)cs1 -49.9%, CSc1cccc(NC(=S)N2CCC(c3ccccc3)C2)c1 (configuration not stated) -47.8%, COc1cc2nc(CN3CCN(S(=O)(=O)c4ccc(Cl)cc4)CC3)[nH]c(=O)c2cc1OC -40.5%, O=C(COc1ccccc1Cl)Nc1ccc(S(=O)(=O)Nc2ccccn2)cc1 -31.1%, CC(=O)Nc1ccc(S(=O)(=O)Nc2nccc(/C=C/c3ccccc3F)n2)cc1 -31.9%, CCCCCCCN1C(N(C)C)=NC[C@@H]1Cc1ccccc1 -39.5%, O=C(Nc1cccc(S(=O)(=O)N2CCCCCC2)c1)c1cncc(Br)c1 -37%, CCCOc1ccc(F)cc1-c1cc(C(=O)NCc2ccc(F)cc2)[nH]n1 -38%, OCCCN1CCN(CCCOc2ccccc2-c2ccccc2)CC1 -32.7%, O=C(CN1CCCC1)Nc1ccc(NC(=O)Nc2ccccc2Cl)cc1 -32.2%, CC1(C)Cc2c(c(-c3ccco3)nc3n[nH]c(N)c23)CO1 -37%, COc1ccc(/C=N/NC(=O)c2cc(-c3cccc(C)c3)nc3ccccc23)cc1O -49.6%, O=C(NCc1ccco1)c1ccc(N2CCCCC2)c([N+](=O)[O-])c1 -37.3%, COc1ccc(CNC(=O)CN2CCC(n3nnc4cc(F)ccc43)CC2)cc1 -41.3%, Cc1cccc(N(CC(O)CON=C2c3ccccc3-c3ccccc32)S(C)(=O)=O)c1 (configuration not stated) -37.5%, Fc1cccc(NC(=S)NCc2ccccc2Cl)c1 -34.5%, Cn1c(Nc2ccccc2)nc2ccccc21 -45.3%, CCN(CC(=O)Nc1ccc(NC(C)=O)cc1)C(=O)/C=C/c1cn(-c2ccccc2)nc1-c1cccs1 -32.1%, CC(=O)Nc1cc(-c2ccc(S(C)(=O)=O)cc2)cn2c(-c3ccc(F)cc3)cnc12 -44.7%, CCOC(=O)c1cnc2c(ccc3ccccc32)c1NCCO -46.4%, O=C(c1cccc(S(=O)(=O)N2CCCc3ccccc32)c1)N1CCN(c2ccccc2)CC1 -34.7%, Cc1cc(Cl)cc(C)c1OCCOCCNCc1ccccc1 -38.4%, COc1cc(C(C)=O)ccc1OC(=O)c1cc2cccc(OC)c2oc1=O -30.1%, Cc1ccc2oc(=O)c3cc(C(=O)NCCCN4CCCCCC4)sc3c2c1 -44%, COc1ccccc1-c1cccc(-c2nc(C(=O)Nc3nccs3)cc3c2[C@@H](CCO)N(C(=O)CC2CC2)C3)c1 -37.5%, COc1ccc(-n2nnnc2/C=C\Nc2ccc(C)cc2)cc1 -44.3%, COc1ccc(C2C(Oc3ccccc3C)C(=O)N2Cc2ccc(F)cc2)cc1OC (configuration not stated) -37.8%, Cc1ccc2nc(N(CCN3CCOCC3)C(=O)CCS(=O)(=O)c3ccccc3)sc2c1 -35.3%, O=C(c1nc2n(n1)C(c1ccc(Cl)cc1)C=C(c1ccccc1)N2)N1CCOCC1 (configuration not stated) -43.4%, COC(=O)c1ccc(Cn2c(C)c(C(=O)NCc3cccs3)sc2=O)o1 -31%, O=C(/C=C/c1ccccc1)N1CCN(c2c(Cl)cccc2[N+](=O)[O-])CC1 -38%, Cc1cccc(OCCC(=O)Nc2ccc(F)c(F)c2)c1 -31.1%, CSCCC(c1nnnn1Cc1ccccc1)N1CCN(C/C=C/c2ccccc2)CC1 (configuration not stated) -31.3%, COC(=O)C1=C(C)N(Cc2ccccc2)C(=NCc2ccco2)N[C@H]1c1cccc(F)c1 -49.8%, CC1=C(C(=O)Nc2ccccc2)C(c2ccc(O)cc2)N2C(=O)CSC2=N1 (configuration not stated) -34.5%, N#C/C(=N\Nc1cccc(C(F)(F)F)c1)C(=O)c1ccsc1 -43.7%, COc1ccc(CN(C)C(=O)C(Cc2ccccc2)NC(=O)c2ccccc2)c(OC)c1OC (configuration not stated) -35.8%, O=C(CCS(=O)(=O)c1ccccc1)Nc1nc2cc3c(cc2s1)OCCO3 -37.6%, Cc1sc2ncnc(NCc3cccs3)c2c1C -33.8%, CC(C)C[C@H]1CN=C(Nc2ccccc2)N1CCC(C)c1ccccc1 (some centres not stated) -46.5%, C=C(C)c1cccc(C(C)(C)NC(=O)N2CCN(c3ccccc3OC)CC2)c1 -48.2%, CN(C)c1ccc(NC(=O)c2cc3c(=O)n4ccccc4nc3n2C)cc1 -45.4%, NNC(=O)c1csc(-c2ccc(C(F)(F)F)cc2Cl)n1 -38.4%, CCCCOCCCNC(=O)c1cccs1 -35%, COc1ccc2c(c1)C(=NO)c1cc(OC)ccc1-2 -45.3%, O=C(C1CCCN(S(=O)(=O)c2ccccc2)C1)N1CCN(c2ccc(F)cc2)CC1 (configuration not stated) -35.9%

Activity change, inactive:
Cc1ccccc1OCCn1cc(/C=C(\C#N)C(=O)NCc2ccco2)c2ccccc21 26.3%, CCN(Cc1cc2cc(OC)ccc2[nH]c1=O)C(=O)c1ccncc1 0%, COc1ccc(NS(=O)(=O)c2ccc(N3CCCC3=O)cc2)cn1 34.3%, COc1ccc(C(C(=O)NCc2ccccc2)n2c(-c3ccccn3)nc3ccccc32)cc1 (configuration not stated) -15.7%, COc1ccccc1NS(=O)(=O)c1ccc(-c2cc(C)no2)s1 56.4%, Nc1nc2ccccc2cc1C(=O)NCc1cccs1 47.6%, CCCC1COC(Cn2cncn2)(c2ccc(C)cc2)O1 (configuration not stated) 8.73%, CN(CCNC(=O)C1CCCN(c2ncnc3c2nc2n3CCCCC2)C1)Cc1ccccc1 (configuration not stated) -12.5%, CCOc1c(OC)cc(C2C(C#N)=C(N)Oc3n[nH]c(-c4ccncc4)c32)cc1OC (configuration not stated) 25.5%, O=C(Nc1ccc(S(=O)(=O)Nc2ncccn2)cc1)c1ccccc1NS(=O)(=O)c1ccc(Cl)cc1 27.2%, CC12CCC(=O)N1C(C(=O)NNC(=O)c1ccc(Br)cc1)CS2 (configuration not stated) 13.4%, COC(=O)C[C@@H]1C=C[C@@H](NC(=O)c2cccnc2)[C@@H](CO)O1 2.57%, CCc1ccccc1OCC(=O)NCC1COc2ccccc2O1 (configuration not stated) -11.7%, CN1CCN(c2cc(-c3cccc(C(=O)O)c3)nc3ccnn23)CC1 0%, Cc1cc(C)c2c(N)c(C(=O)Nc3ccc(C)c(C)c3)sc2n1 -5.45%, COc1ccccc1CCC(=O)NNC(=O)c1ccc(Br)cc1 -15.5%, Cc1ccc(-c2noc(CCCC(=O)Nc3cccnc3)n2)cc1 45.3%, CCCCNC(=O)[C@@H]1CC=C[C@@H]2CCN(C3CC3)C(=O)[C@@H]21 36.2%, CC(C)CN1C(=O)c2ccc(NC(=O)C3CC3)cc2C1=O -5.88%, CCCCNC(=O)c1nc(-c2cccs2)oc1-c1ccc(Cl)cc1 -5.12%, O=C(CSc1nnc(CNC(=O)C23CC4CC(CC(C4)C2)C3)n1-c1ccccc1)Nc1ccc(F)cc1 -28.2%, Cc1csc(NC(=O)[C@@H](NC(=O)c2ccccc2)C(C)C)n1 15.9%, Cc1nn(C)c(C)c1S(=O)(=O)N(CC(=O)NCCCN1CCC(C)CC1)c1ccc(C(C)C)cc1 -24.2%, O=C(COc1ccc(C(=O)NCC2CCCO2)cc1)Nc1cccc(C(F)(F)F)c1 (configuration not stated) 2.86%, CC(C)CNC(=S)NC(=O)c1ccc([N+](=O)[O-])cc1 -7.34%

Activity change, active:
COc1cccc2c1C(=O)c1c(O)c3c(c(O)c1C2=O)CC(O)(C(C)=NNC(=O)c1ccc(Cl)c(Cl)c1)CC3OC1CC(N)C(O)C(C)O1 (configuration not stated) -101%, CCOC(=O)/C=C(\C)Sc1cc(O)c2ccccc2c1O -61.8%, COCC(C)N1CC(O)=C(c2nc(-c3ccc(Cl)cc3)cs2)C1=N (configuration not stated) -53.3%, COc1cccc2cc(C(=O)NCc3ccccc3)c(=N)oc12 -105%, COc1ccc2cc3cc(C(=O)NCC4CCCO4)oc3nc2c1 (configuration not stated) -55.9%, O=C(NC1CCCCC1)C(c1ccccc1)n1c(=O)c(-c2cc3ccccc3[nH]2)nc2ccccc21 (configuration not stated) -68.8%, Cc1ccnc(NC(=O)C2CCN(S(=O)(=O)c3cccc4nonc34)CC2)c1 -50.7%, CCOC(=O)c1cc([N+](=O)[O-])c([N+](=O)[O-])cc1NC(C)=O -81.4%, CC(C)Cc1ccc(CN2C(C(C)C)C(=O)N(Cc3cn(CCC4OCCO4)nn3)CCS2(=O)=O)cc1 (configuration not stated) -56%, O=C(Nc1csc([N+](=O)[O-])c1)Nc1ccccc1Cl -98.1%, COCCCNC(=O)c1ccc2c3c(onc13)-c1ccccc1C2=O -98%, Cc1cccc(CSc2cccc3cccnc23)c1 -110%, COc1ccc2c(c1)CC/C(=C\c1ccc(OC)c(Cn3cccn3)c1)C2=O -51.7%, O=C(c1cc(-c2ccncc2)nc2ccccc12)N1CCN(Cc2ccccc2)CC1 -59.6%, Cc1noc2ncnc(Sc3ccc(Br)cc3)c12 -101%, O=C(CCCN1C(=O)/C(=C/c2ccccc2Cl)SC1=S)Nc1ccccn1 -81.4%
